Data on 70 compounds can be found in PubChem BioAssay AID488969 (Vanderbilt High Throughput Screening Facility, 2010).

The full ranking holds about 110,000 compounds; the median of “z-score” is about -0.1, and the highest 2% start at about 2. This is one part of the list. Activity calls are given as the source filed them.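 How the source made its calls: active means z-score in the third read window above 3 or below -3; inactive means the rest.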

This test concerns the target Metabotropic glutamate receptor 8 (Rattus norvegicus) (UniProt P70579). The test can be described thus: mGluR8 Gi/Go-coupled signaling modulation – cell-based, rat, thallium flux, HTS, primary screen (AID 488969). The settings on record: HEK293 rat mGluR8, GIRK (G protein-gated inwardly rectifying potassium channel) thallium flux, FluoZin2; at 10 µM; stronger effect = higher value; submaximal glutamate (EC20) added with thallium.
UniProt P70579, sequence (P70579 whole entry, looked up): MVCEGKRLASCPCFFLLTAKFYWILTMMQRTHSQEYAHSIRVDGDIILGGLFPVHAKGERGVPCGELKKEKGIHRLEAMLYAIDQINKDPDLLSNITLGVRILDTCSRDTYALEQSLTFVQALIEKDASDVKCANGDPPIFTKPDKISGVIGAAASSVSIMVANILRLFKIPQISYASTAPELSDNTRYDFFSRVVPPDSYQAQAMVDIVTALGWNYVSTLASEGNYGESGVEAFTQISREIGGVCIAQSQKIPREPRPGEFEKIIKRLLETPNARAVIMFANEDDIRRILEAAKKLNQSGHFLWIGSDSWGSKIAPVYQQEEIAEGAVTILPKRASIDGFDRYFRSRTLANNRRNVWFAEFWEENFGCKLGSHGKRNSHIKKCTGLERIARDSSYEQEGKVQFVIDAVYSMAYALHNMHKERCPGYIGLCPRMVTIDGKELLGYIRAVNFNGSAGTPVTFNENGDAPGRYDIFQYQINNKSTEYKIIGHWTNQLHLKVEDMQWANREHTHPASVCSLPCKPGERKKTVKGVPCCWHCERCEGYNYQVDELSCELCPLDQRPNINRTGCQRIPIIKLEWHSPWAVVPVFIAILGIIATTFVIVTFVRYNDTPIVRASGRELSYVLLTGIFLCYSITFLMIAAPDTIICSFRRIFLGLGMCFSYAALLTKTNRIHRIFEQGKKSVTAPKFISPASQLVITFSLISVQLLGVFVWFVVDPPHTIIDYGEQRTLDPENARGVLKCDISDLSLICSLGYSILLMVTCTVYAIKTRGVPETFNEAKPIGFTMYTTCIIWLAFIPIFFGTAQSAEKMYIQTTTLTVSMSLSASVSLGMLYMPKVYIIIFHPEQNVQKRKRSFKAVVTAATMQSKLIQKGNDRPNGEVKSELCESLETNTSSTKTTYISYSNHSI
With `CCOC(=O)C1CCN(S(=O)(=O)c2ccc(Cl)cc2OC)CC1`, the z-score was -0.0193.
The figure for `CSc1ccc(S(=O)(=O)NCc2ccc(C)cc2)cc1` is -0.724; for `Cc1cc(C)nc(SCc2csc(-c3ccccc3)n2)n1` it is -0.101; for `CC(C)n1nc(C(=O)Oc2cccc(Cl)c2Cl)c2ccccc2c1=O` it is -0.0207.
Turning to `O=C(CSc1ccc2ccccc2c1)Nc1ncccn1`, the z-score is 0.0799.
For the compound `COC(=O)CNC(=O)CCCCC(=O)NCC(=O)OC`, the z-score was -0.123.
`CCNC(=S)N(Cc1ccco1)Cc1cc2cc3c(cc2[nH]c1=O)OCCO3`: the z-score was 0.158.
The compound `Cn1cc(Br)c(C(=O)N2CCN(c3cccc(Cl)c3)CC2)n1` showed a z-score of 0.000721.
On to `CSc1nc2cc3c(cc2n1C(=O)c1ccc(C)cc1)OCCO3`, for which the z-score was -0.0138.
In turn, `Cc1ccccc1-c1nc(S(=O)(=O)c2ccc(Br)cc2)c(NCc2cccnc2)o1` came in with a z-score of -0.22.
The figure for `COC(=O)C1(C(F)(F)F)N=C2Sc3ccccc3N2C(N2CCOCC2)=N1` (stereo not given) is -0.255.
In turn, `Cc1ccc(S(=O)(=O)CCc2nc3ccccc3s2)cc1` registered a z-score of -0.0613.
Turning to `COc1ccc2c(c1OC)C(=O)c1ccccc1C2=O`, the z-score is 0.154.
In the case of `CN1CCN(S(=O)(=O)c2ccc(Sc3nc4ccccc4[nH]3)c3nsnc23)CC1`, the z-score came out at 0.409.
In turn, `CCC(=O)N1CCN(c2nc(C)nc3sc(C)c(C)c23)CC1` yielded a z-score of -0.295.
As for `COCCn1cc(C(=O)N2CCC(C)CC2)c2c3ccccc3n(C)c2c1=O`, the z-score was found to be 0.278.
In turn, `CCCCc1ccc(NC(=O)N[C@H](C(=O)O)C(C)CC)cc1` (stereo not given in full) had a z-score of 0.195.
Regarding `CCOC(=O)C1CCN(CCC(=O)Nc2ccccc2Cl)CC1`, the z-score was -0.357.
Compound `COC(=O)c1ccccc1NS(=O)(=O)c1ccc(F)cc1` yielded a z-score of 1.24.
`COc1ccc(S(=O)(=O)N2CCCC(C(=O)NC3CCCCC3)C2)cc1` (stereo not given) registered a z-score of -0.893.
As for `Nc1nnc(Cc2ccc(Cl)cc2Cl)s1`, the z-score was found to be 0.276.
With `CC(C)(C)c1ccc(OCC(O)CSc2ncn[nH]2)cc1` (stereo not given), the z-score is -0.0863.
The compound `O=C(Nc1ccccc1)C12CC3CC(C1)CC(n1cnc([N+](=O)[O-])n1)(C3)C2` gave a z-score of -0.0536.
Consider `CCOC(=O)C1=C(O)/C(=C/c2ccc(OCC(=O)O)c(OC)c2)SC1=Nc1ccc(OC)cc1`, for which the z-score is -0.434.
For the compound `S=C(Nc1ccc(Cl)cc1)c1nc2ccccc2[nH]1`, the z-score is active: 6.95.
`Cn1cccc1C(=O)NC(=O)CSc1nnc(C2CC2)n1-c1ccccc1` gave a z-score of -0.822.
Take `CC1=C(C(=O)Nc2ccc(F)cc2)C(c2ccncc2)C2=C(CCCC2=O)N1` (stereo not given): the z-score turned out to be 0.356.
The figure for `O=C(NC(=O)c1ccncc1)NC(c1ccccc1)c1ccccc1` is -0.156; for `Cc1[nH]c2ccccc2c1Cc1nnc(SCCC#N)o1` it is -0.0224; for `Cc1ccccc1NC(=S)NCCC(c1ccccc1)c1ccccc1` it is -0.309.
In the case of `C=C(C)COc1ccc(-c2nc(N)ncc2Oc2ccccc2OCC)c(O)c1`, the z-score came to 0.133.
As to `COc1ccc(C2N(c3ccc(Cl)cc3)C(=O)C3CCCN32)cc1` (stereo not given), the z-score was -0.0547.
Consider `CC1CN(c2ccc(C(F)(F)F)cc2[N+](=O)[O-])CCN1S(C)(=O)=O` (stereo not given), for which the z-score is -0.214.
For `CCC(=NCCN1CCNCC1)C1=C(O)CC(C)(C)CC1=O`, the z-score was 0.198.
For `Cc1ccc(N=Cc2c(O)n(-c3cc(Cl)ccc3N3CCOCC3)c(=O)c3ccccc23)cc1C`, the z-score is -0.575.
Compound `C=CCN1C(=O)C(Cc2ccc(OC)cc2)SC1=Nc1ccc(C(=O)O)cc1` (stereo not given) had a z-score of -0.251.
Take `CCCCCC(=O)NC(=S)Nc1ccc(N2CCCCC2)c(Cl)c1`: the z-score is -0.183.
The figure for `C/C(N)=C(\C#N)C(=O)NCc1ccccn1` is 1.05; for `COc1ccc2sc(NC(=O)c3ccco3)nc2c1` it is -0.509.
The compound `Cc1ccc(C2CC(=O)Nc3c2ccc2ccccc32)cc1[N+](=O)[O-]` (stereo not given) yielded a z-score of -0.0483.
The figure for `O=C(Cn1nnc(-c2ccccc2)n1)NCc1ccccc1` is 0.748.
The figure for `CCOc1cc(N2CCOCC2)c(OCC)cc1NC(=O)CN1CCCC1` is 0.0453; for `COc1ccc(OCC(=O)Nc2cccc(NC(=O)COc3ccc(OC)cc3)n2)cc1` it is 1.17.
`O=C(OCc1ccccc1)Oc1cncc(C(=O)O)c1` returned a z-score of 2.64.
As for `O=C(CCCN1C(=O)c2ccccc2C1=O)Nc1ccccn1`, the z-score was -0.0505.
In the case of `O=C(CSc1nnnn1-c1ccccc1)Nc1ncc(Cc2cccc(Cl)c2Cl)s1`, the z-score was -0.174.
`O=C1NC(c2ccccc2)=C(c2ccc3ccccc3n2)C(c2ccc(F)cc2)N1` (stereo not given) returned a z-score of 0.277.
With `COc1ccc(/C=N/NC(=O)c2ccoc2C)cc1OC`, the z-score is -0.107.
In turn, `COc1cc(S(=O)(=O)N2CCCCC2)ccc1NC(=O)Cc1ccccc1` returned a z-score of -0.203.
The figure for `CC(C)CC(=O)O/N=C1\C(=O)N(Cc2ccc(Cl)cc2)c2ccc([N+](=O)[O-])cc21` is -0.196.
`O=C(O)CCC(=O)Nc1ccc(OCC(=O)O)cc1` gave a z-score of 0.144.
The compound `COC(=O)c1ccc(COC(=O)CCc2nc(-c3ccccc3)c(-c3ccccc3)o2)cc1` had a z-score of -0.074.
For `O=S1(=O)CCC(NC(=S)N2CCCCCC2)C1` (stereo not given), the z-score was -0.138.
For `Cc1cc(N=CC2=C(O)CC(C)(C)CC2=O)no1`, the z-score was 0.425.
Regarding `NC(=S)N/N=C/c1ccccc1OCc1cccc(Cl)c1`, the z-score is -0.0335.
Consider `CC(=O)NCCOc1nc(N(C)C)nc(N(C)C)n1`, for which the z-score was -0.242.
In the case of `C=CCN(CC=C)C(=O)c1cc(Cl)ccc1[N+](=O)[O-]`, the z-score was -0.225.
Compound `CCN(CC)c1ccc2cc(-c3nnc(-c4ccncc4)o3)c(=O)oc2c1` returned a z-score of -1.17.
Turning to `CCC/C=N/NC(=O)c1[nH]c2c([N+](=O)[O-])cccc2c1C`, the z-score came to 2.02.
Regarding `CCOC(=O)C1=C(CSCC(=O)OC)NC(=O)NC1c1cc(C)ccc1C` (stereo not given), the z-score is -0.26.
On to `CN1CC(c2ccc(C#N)cc2)C2(COc3ccccc3C2=O)C12C(=O)Nc1ccccc12` (stereo not given), for which the z-score was -0.214.
For `Cc1noc(C)c1COc1cccc(C(=O)NCc2ccccc2Cl)c1`, the z-score was -0.768.
As to `COc1ccc(-c2oc(NC(=O)CSc3ncn[nH]3)c(C#N)c2-c2ccc(OC)cc2)cc1`, the z-score is -0.566.
Consider `CC1(C)CC(=O)C(C=Nc2cccc(/N=C/C3=C(O)CC(C)(C)CC3=O)n2)=C(O)C1`, for which the z-score was found to be 0.119.
For the compound `COC(=O)C1=NN(c2ccccc2OC)C2C(=O)N(c3ccccc3OC)C(=O)C12` (stereo not given), the z-score was -0.137.
Compound `COc1ccc(C(c2nnnn2Cc2ccccc2)N2CCN(c3nc4ccccc4s3)CC2)cc1OC` (stereo not given) registered a z-score of -0.223.
With `O=C(Nc1ncccc1Cl)C1COc2ccccc2O1` (stereo not given), the z-score was -0.0655.
`Cc1ccc(SCc2cc(=O)[nH]c(N3CCOCC3)n2)cc1` displayed a z-score of -0.636.
For `COc1cccc(NC(=O)C2C3C=CC4(O3)C2C(=O)N(C2CC2)C4C(=O)NC2CCCCC2C)c1` (stereo not given), the z-score was -0.0656.
The compound `Cc1sc(NC(=O)C2C3CCC(C3)C2C(=O)O)c(C(N)=O)c1-c1ccc(C(C)(C)C)cc1` (stereo not given) had a z-score of 1.58.
